Laboratory results from paper PMC6323126.
These are yes or no findings as the source states them, for the method shown. In cells and extracts the contact can be indirect. Some binding calls cover weakened binding; strength is not graded here. Sequences can lack the tags named with a protein.

Assays:
Test in all cases: co-IP; HEK293FT cells transfected with tagged plasmids, lysed 24 h later in RIPA buffer; immunoprecipitation with indicated antibodies and Protein A/G beads; immunoblot
[1] = target: T1, Flag-tagged SLMAP (wildtype, in cells) (human) (UniProt Q14BN4)
T1 sequence: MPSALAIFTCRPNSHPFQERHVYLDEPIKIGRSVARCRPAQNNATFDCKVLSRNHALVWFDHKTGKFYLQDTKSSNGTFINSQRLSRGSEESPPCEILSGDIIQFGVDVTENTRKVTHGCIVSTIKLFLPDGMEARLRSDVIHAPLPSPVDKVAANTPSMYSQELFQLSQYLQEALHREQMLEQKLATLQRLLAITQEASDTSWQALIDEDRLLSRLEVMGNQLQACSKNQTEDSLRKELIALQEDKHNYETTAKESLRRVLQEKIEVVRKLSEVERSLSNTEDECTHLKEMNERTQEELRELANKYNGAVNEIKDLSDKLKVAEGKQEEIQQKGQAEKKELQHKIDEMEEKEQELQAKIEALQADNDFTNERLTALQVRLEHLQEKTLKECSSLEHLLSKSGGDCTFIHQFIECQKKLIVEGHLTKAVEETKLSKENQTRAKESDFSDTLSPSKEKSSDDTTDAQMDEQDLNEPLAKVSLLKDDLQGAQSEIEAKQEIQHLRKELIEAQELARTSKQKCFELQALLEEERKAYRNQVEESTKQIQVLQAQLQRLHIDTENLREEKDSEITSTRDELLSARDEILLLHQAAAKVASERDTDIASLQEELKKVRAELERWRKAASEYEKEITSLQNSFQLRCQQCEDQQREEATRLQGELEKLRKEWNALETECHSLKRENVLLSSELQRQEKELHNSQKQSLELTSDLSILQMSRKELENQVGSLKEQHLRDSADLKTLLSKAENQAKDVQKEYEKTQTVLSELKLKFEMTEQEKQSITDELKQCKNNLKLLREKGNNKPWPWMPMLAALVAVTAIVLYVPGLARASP

[2] = target: T2, Flag-tagged SLMAP 4LD (L182D/L186D/L189D/L193D) (human) (UniProt Q14BN4)
T2 sequence: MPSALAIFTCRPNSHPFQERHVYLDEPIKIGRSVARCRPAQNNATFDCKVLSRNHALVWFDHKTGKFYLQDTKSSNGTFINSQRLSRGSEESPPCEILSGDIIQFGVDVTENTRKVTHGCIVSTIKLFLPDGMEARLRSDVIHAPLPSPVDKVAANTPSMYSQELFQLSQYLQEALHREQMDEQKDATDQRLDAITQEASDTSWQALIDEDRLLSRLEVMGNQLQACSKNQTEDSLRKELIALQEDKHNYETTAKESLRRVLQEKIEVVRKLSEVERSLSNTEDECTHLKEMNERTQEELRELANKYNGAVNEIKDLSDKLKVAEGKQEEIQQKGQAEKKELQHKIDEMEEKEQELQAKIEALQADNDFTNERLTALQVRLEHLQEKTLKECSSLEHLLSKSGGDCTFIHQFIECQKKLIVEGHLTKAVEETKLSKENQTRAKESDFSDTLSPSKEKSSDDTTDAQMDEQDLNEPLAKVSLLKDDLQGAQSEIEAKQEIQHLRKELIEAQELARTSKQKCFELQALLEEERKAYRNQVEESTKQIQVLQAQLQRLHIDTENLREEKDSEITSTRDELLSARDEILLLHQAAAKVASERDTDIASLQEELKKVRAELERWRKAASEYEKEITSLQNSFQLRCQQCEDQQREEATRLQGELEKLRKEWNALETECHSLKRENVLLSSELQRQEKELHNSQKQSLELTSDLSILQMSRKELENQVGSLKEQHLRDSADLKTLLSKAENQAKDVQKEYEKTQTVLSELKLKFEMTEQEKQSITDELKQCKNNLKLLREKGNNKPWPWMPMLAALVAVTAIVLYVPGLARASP

[3] = target: T3, Flag-tagged STRN3 L179D/V186D (human) (UniProt Q13033)
T3 sequence: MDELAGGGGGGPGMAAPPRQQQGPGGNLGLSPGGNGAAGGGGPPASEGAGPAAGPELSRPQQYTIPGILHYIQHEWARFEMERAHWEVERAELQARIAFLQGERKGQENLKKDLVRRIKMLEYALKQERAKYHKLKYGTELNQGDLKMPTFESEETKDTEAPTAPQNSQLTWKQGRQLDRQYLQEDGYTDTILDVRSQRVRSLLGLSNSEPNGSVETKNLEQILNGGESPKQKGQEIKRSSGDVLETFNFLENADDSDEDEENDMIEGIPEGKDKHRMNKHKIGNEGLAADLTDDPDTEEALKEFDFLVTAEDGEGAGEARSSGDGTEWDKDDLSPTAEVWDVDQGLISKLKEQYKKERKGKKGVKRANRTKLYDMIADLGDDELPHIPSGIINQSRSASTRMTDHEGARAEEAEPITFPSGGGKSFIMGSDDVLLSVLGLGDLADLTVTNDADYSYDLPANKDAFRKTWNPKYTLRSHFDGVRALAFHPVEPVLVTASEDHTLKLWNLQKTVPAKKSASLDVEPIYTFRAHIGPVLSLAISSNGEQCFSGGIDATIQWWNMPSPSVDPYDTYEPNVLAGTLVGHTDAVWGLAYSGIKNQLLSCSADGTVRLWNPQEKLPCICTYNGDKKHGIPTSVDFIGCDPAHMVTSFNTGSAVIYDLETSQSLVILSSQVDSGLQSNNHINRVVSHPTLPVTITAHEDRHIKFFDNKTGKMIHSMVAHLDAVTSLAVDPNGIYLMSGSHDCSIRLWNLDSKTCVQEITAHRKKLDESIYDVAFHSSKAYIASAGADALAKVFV

binding [1]: binds
binding [2]: no binding
binding [3]: no binding
B1: HA-tagged SIKE1 (wildtype, in cells) (protein, UniProt Q9BRV8 1-207)
chain: MSCTIEKILTDAKTLLERLREHDAAAESLVDQSAALHRRVAAMREAGTALPDQYQEDASDMKDMSKYKPHILLSQENTQIRDLQQENRELWISLEEHQDALELIMSKYRKQMLQLMVAKKAVDAEPVLKAHQSHSAEIESQIDRICEMGEVMRKAVQVDDDQFCKIQEKLAQLELENKELRELLSISSESLQARKENSMDTASQAIK
